Values marked as one replicate rest on one cluster of the flow cell; about a third of the high ones do not repeat.

For 66 sequences, switch fluorescence ratio results are on record in the supplement of paper PMC10126150.

The series concerns ATP. Description: switch fluorescence ratio, 500 uM ATP over buffer (Cy3 cluster intensity, sum of 5 cycles each) (fold (ratio)); higher = stronger signal-on switching upon ATP binding; sequences stand for … in TCGTCGGCAGCGTCAGATGTGTATAAGAGACAGTTTTTTTTTTTTTTTTTTTTTTTTT…TC. The note with it: aptamer strand: ATP DNA aptamer (quencher-CACCTGGGGGAGTATTGCGGAGGAAGG + anchor), 100 nM annealed; ATP concentration: 500 uM; one replicate. The gist of the method: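 After annealing to 100 nM quencher-labelled ATP aptamer, Cy3-labelled switching-strand clusters on a modified Illumina MiSeq flow-cell were imaged in selection buffer. A second image followed after 15 min with 500 uM ATP at 22 °C, and five such buffer/ATP cycles were done, each separated by NaOH stripping and re-annealing. The fluorescence ratio, averaged per switch-domain sequence, is summed target-cycle over summed buffer-cycle Cy3 intensity per cluster, with clusters outside 100-1000 RFU excluded.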
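Note: ATP exposure 15 min at 22 °C before imaging.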

As for TCGCGTTAGA, the switch fluorescence ratio stood at 1.02.

In the case of ACGGTGTGTT, the switch fluorescence ratio is 1.04.

GATTGGGACG: the switch fluorescence ratio worked out at 0.991.

For GGTGCACAGG, the switch fluorescence ratio amounted to 1.19.

Regarding AAGATTTGGA, the switch fluorescence ratio worked out at 1.02.

Regarding CGCTGGTCAC, the switch fluorescence ratio is 1.14.

With CGTGAATCGG, the switch fluorescence ratio came out at 0.994.

Regarding ACACCTTCGC, the switch fluorescence ratio is 2.06.

Turning to TAAGGAGTAT, the switch fluorescence ratio turned out to be 1.02.

Take ACCCTACTAA: the switch fluorescence ratio was 1.26.

With CTATATGAGA, the switch fluorescence ratio came out at 0.963.

As to TAGTTCGACG, the switch fluorescence ratio turned out to be 0.972.

Turning to CCCGGCGCGT, the switch fluorescence ratio came out at 1.3.

In the case of TGACGGATAG, the switch fluorescence ratio was found to be 0.968.

As for GACCGAGGGC, the switch fluorescence ratio turned out to be 0.973.

As to TATGCGCGGC, the switch fluorescence ratio turned out to be 0.948.

With GCGACTTATG, the switch fluorescence ratio is 1.01.

As for TCCTGTTCGA, the switch fluorescence ratio is 0.995.

Take GCGACTGAAC: the switch fluorescence ratio is 1.21.

For the sequence TACTGGGGCC, the switch fluorescence ratio stood at 1.05.

For TATCGGCCCT, the switch fluorescence ratio came to 1.11.

Take CCACTCTACA: the switch fluorescence ratio amounted to 1.35.

As for GGAGCGATTT, the switch fluorescence ratio came out at 1.62.

In the case of GCAATCTGGA, the switch fluorescence ratio was found to be 1.07.

Consider ATGTTAAGTT, for which the switch fluorescence ratio stood at 0.977.

Turning to TTTTGGTTCT, the switch fluorescence ratio worked out at 0.956.

Take AAGGGTTTGG: the switch fluorescence ratio came out at 1.04.

With AACCAAATCC, the switch fluorescence ratio worked out at 1.1.

As for GAATAGGGAA, the switch fluorescence ratio worked out at 0.97.

With ACGTTCCCAA, the switch fluorescence ratio came to 1.21.

With CGCCTGAAGG, the switch fluorescence ratio amounted to 0.975.

On to GAGGTTGGAC, for which the switch fluorescence ratio is 0.972.

With ATTATTATAC, the switch fluorescence ratio was 1.05.

In the case of GGCTTCTGTC, the switch fluorescence ratio amounted to 1.01.

For TATCCTCTAG, the switch fluorescence ratio turned out to be 0.995.

In the case of AACGGGTGCT, the switch fluorescence ratio worked out at 0.999.

Consider AGTTAGCGGC, for which the switch fluorescence ratio was found to be 1.01.

For GACAAGGAAG, the switch fluorescence ratio is 1.01.

As for GAGAACATCA, the switch fluorescence ratio came out at 1.01.

Consider GCGTATAGAC, for which the switch fluorescence ratio was 1.05.

Take CCGTATAGC: the switch fluorescence ratio amounted to 3.04.

For the sequence GGAGTATGCT, the switch fluorescence ratio worked out at 1.04.

Regarding TTTGCTGTGC, the switch fluorescence ratio amounted to 1.07.

TGTAAGCTTT: the switch fluorescence ratio came out at 1.01.

Regarding TCTTACCACA, the switch fluorescence ratio amounted to 1.07.

Turning to CAGCCCATGT, the switch fluorescence ratio amounted to 1.04.

GTTTCACGCC: the switch fluorescence ratio was determined as 1.04.

For CAGGTTTGGG, the switch fluorescence ratio came to 0.973.

As to TTAGGTAATC, the switch fluorescence ratio was found to be 0.962.

Regarding GTTATGACGG, the switch fluorescence ratio stood at 1.11.

In the case of AGTTTGCAAA, the switch fluorescence ratio amounted to 0.992.

With AGGTTGTACG, the switch fluorescence ratio is 0.992.

As for TCGCCCAGAC, the switch fluorescence ratio stood at 3.1.

Take TAGATTCGGA: the switch fluorescence ratio stood at 0.896.

Take CTGTCCACTG: the switch fluorescence ratio was 0.982.

Turning to ATGAGGACG, the switch fluorescence ratio was determined as 1.01.

On to TCCGAGTTAA, for which the switch fluorescence ratio stood at 1.52.

For TAATACTAAA, the switch fluorescence ratio came to 1.01.

Regarding TCCACGTAAA, the switch fluorescence ratio worked out at 1.68.

For the sequence TGGCGTCATA, the switch fluorescence ratio is 1.

Take ACTATATCGG: the switch fluorescence ratio amounted to 1.1.

On to AAATTGTTCT, for which the switch fluorescence ratio stood at 0.97.

With CGTAATCATT, the switch fluorescence ratio was 1.04.

Consider AACTTTCGTG, for which the switch fluorescence ratio was 0.975.

GTAGGAAAAT: the switch fluorescence ratio amounted to 1.03.

For ATCTGACAGC, the switch fluorescence ratio was found to be 1.04.
